Source: ChEMBL document CHEMBL4888484, “Replenishing the malaria drug discovery pipeline: Screening and hit evaluation of the MMV Hit Generation Library 1 (HGL1) against asexual blood stage Plasmodium falciparum ,using a nano luciferase reporter read-out” (2022)
About 540 (0.36%) of roughly 150,000 compounds showed an effect of 50% or more. This is one part of the list.

test system: Plasmodium falciparum; test: Primary screen in NF54 nanoGlo assay, in single point, at 2uM, 72h; a lower Z score goes with more inhibition; format: functional, Erythrocyte; details: timepoint 72 hour

SMILES	% Inhibition [%]	Z score
CN(C(=O)c1cc2c(s1)CCC2)S(=O)(=O)Cc1ccccc1	-5	0.47
O=C(CN1CCN(c2cnccn2)C[C@@H](O)C1)N1CCCCC1	-8	0.84
CC1(C)CCc2nnc(C3CCCC3)n2C1	-14	2.61
CCOC(=O)C1=C(C(=O)OCC)SC(=C2C(=S)C(C)(C)N(C(=O)CN3C(=O)CCC3=O)c3ccc(OC)cc32)S1	-6	0.72
Cc1ccc(Cl)c(OC(=O)[C@H]2CCCN(C(=O)N(C)C)C2)c1	-7	0.98
CN1CCN(CCCN(C(=O)c2cc(C3CC3)[nH]n2)C2CCOCC2)CC1	-9	1.37
CCC(C(=O)NC1CCOC1c1ccc(Cl)c(F)c1)N(C)C (stereo not drawn)	-3	0.33
CCS(=O)(=O)c1ccc(Cl)cc1C(=O)N(C)c1nccs1	-5	0.54
Cc1ccc(N2COc3cc4c(cc3C2)OCO4)cc1C	-10	1.51
NC(=NCCCc1ccc(Cl)cc1)N1CCOCC1	-13	1.42
CC(C)CC[C@](C)(O)CNc1ncnc2nc(N)ccc12	4	-0.58
CC1(C)CN(C(=O)c2cocn2)c2c(C(F)(F)F)cccc21	3	-0.45
O=C1C[C@H](C(=O)N(CCO)C2CC2)CN1CCOc1ccccc1Cl	-2	0.18
Cc1oc(-c2ccccc2NS(=O)(=O)c2cccc(F)c2)nc1CNC(=O)[C@@H]1CCCCN1C	-8	0.93
Cc1cc2nccc(NC(=O)N[C@@H](C)c3ccnn3C)n2n1	-3	0.64
N#Cc1ccc(C(=O)NCc2nnc(N)s2)cn1	-8	1.36
CNc1cc([C@H]2C[C@H](NC(=O)c3c(C)nc4ccc(Cl)cn34)C2)ncn1	-14	2.61
CCc1ccc([C@H](COC)NS(C)(=O)=O)o1	-1	0.13
Cc1ccncc1C(=O)NCc1cccnc1Oc1ccc(F)cc1F	-5	1.05
COc1ccc(NC(=O)COC(=O)[C@@H]2CCCCN2S(=O)(=O)c2cccc3c2N=S=N3)cc1	0	-0.05
CCOC(=O)c1cn(C)c(C(=O)OC)c1N	6	-0.68

SMILES	% Inhibition [%]	Z score
CCOc1nc(-c2cccc(C(F)(F)F)c2)n(-c2ccc(NC(=O)c3ccc(OC)cc3)cc2)n1	-7	0.78
Cc1ccc(CNC(=O)[C@@H](C)C2CCN(C(=O)c3ccc4nc(-c5ccccc5)oc4c3)CC2)o1	-4	0.46
COCCOc1nc(-c2cccc(C(F)(F)F)c2)n(-c2ccc(NC(=O)c3ccc(OC)cc3OC)cc2)n1	-4	0.54
O=C(COC1CCCC1)NCc1nnc2ccccn12	-5	1.02
COc1ccc(-c2cccc3c2O[C@@H](CN)C3)nn1	-1	0.11
CC(C)[C@H](CNC(=O)c1cccc(-n2cncn2)c1)N1CCN(C)CC1	-1	0.1
O=C(NCc1ccc[nH]1)C(=O)Nc1cc(F)cc(Cl)c1	-7	1.29
CCn1cc(C(=O)Nc2cn(C)nc2C(=O)NCc2ccco2)cn1	-6	0.87
CC(C)(C)NS(=O)(=O)c1cnc(NS(=O)(=O)c2cccc(F)c2)s1	17	-1.95
O=C(Nc1cnn(-c2ncc(N3CCCCC3)cn2)c1)NC1CCCC1	-18	3.01
COc1ccc([C@H](CNC(=O)c2ccco2)N2CCCCC2)cc1	-10	1.33
C#CCN(CC#CC)CC(=O)NC1CCCC1	-3	0.55
Cc1cnc(C(C)(C)NCC(=O)N2CCCCCC2)s1	-6	0.77
C[C@H]1CCCCN1C(=O)CCNc1ccncc1Cl	-4	0.34
COc1cc(NC(=O)N2CCN(c3ccncc3)[C@@H](C)C2)n(C)n1	-5	0.61
CC(F)(F)C1(CS(=O)(=O)NCc2ccco2)CCOCC1	2	-0.25
O=C(NCc1c(O)cccc1F)N[C@H]1CCO[C@@H]1c1cccnc1	0	0.05
Cc1ccc(NC(=O)c2ccc(N3C(=O)CCS3(=O)=O)cc2Cl)c(C)c1	-9	1.17
CC(C)C(=O)NCc1nc([C@H]2C[C@@H](c3ccccc3)N3CCC[C@H]23)no1	0	0.04
COCCCNC(=O)c1cnc2ccc(Cl)cc2c1O	-6	1.14
C[C@H](NCCN(C)C(=O)OC(C)(C)C)c1cn(C2COC2)nn1	0	-0.04

SMILES	% Inhibition [%]	Z score
CCS(=O)(=O)N1CCC[C@H](C(=O)Nc2ccc(C)c(N3CCCC3=O)c2)C1	-5	0.85
Cc1nn(-c2ccc3nncn3n2)c2c1[C@@H](c1c(Cl)cccc1Cl)CC(O)=N2	-7	1.27
O=C(Nc1cccc(S(=O)(=O)N2CCCCC2)c1)c1ccc2c(c1)OCO2	-9	1.51
Fc1ccc2c(c1Br)CN(CCc1c[nH]nn1)CC2	-5	0.69
c1cn(CCCC2CCN(Cc3nnc4n3CCCC4)CC2)cn1	33	-3.71
COc1cc(OC)cc(C(=O)N[C@H]2CCN(C(N)=O)C2)c1	-7	0.95
O=C(COc1ccc(-c2ccccc2)cc1Cl)Nc1nncs1	-7	1.13
C[C@H]1CCN(c2nc(-c3ccccn3)nc3c2CCC3)C1	90	-12.13
Cc1ccc(N2CCCC2=O)c(C(=O)N[C@H]2COc3ccccc3C2=O)c1	-3	0.43
CCc1cccc(OC2CN(c3cc(N)ncn3)C2)c1	4	-0.56
O=C(c1ccc(-c2cnccn2)cc1)N1CCCCC1	-17	1.88
CCC/C=C/c1ncc(F)c(N2CCOCC2)n1	4	-0.8
CCN(CC)C(=O)C[C@@H]1c2nc(NC(=O)c3ccco3)sc2C[C@@H]2[C@](C)(CO)[C@H](O)CC[C@]21C	-4	0.68
COC[C@@]12CCN(C(=O)C3CCC3)C[C@@H]1CN(S(C)(=O)=O)C2	-11	1.32
CCS(=O)(=O)N1CCCC(C(=O)N[C@@H](CO)CC(C)C)C1 (stereo partly drawn)	-3	0.35
Cc1ccc2oc(-c3nnc(C(=O)NCc4ccccc4)o3)c(C)c2c1	10	-1.18
NC(=O)CS(=O)(=O)NC(=O)C1CCCCCCC1	3	-0.53
O=C1NCCN(Cc2cc(CN3CCCC3)cs2)[C@H]1c1cccc(F)c1	2	-0.35
Cc1nc(N2CCOCC2)nc2c1CCCC2	33	-0.57
COc1ccc(N2CCN(c3ncccc3-c3nc(-c4cccc(C)c4)no3)CC2)cc1	22	-2.6
Cc1sc(-c2nc(C(C)C)cs2)cc1S(=O)(=O)NCc1ccc2c(c1)OCO2	-14	1.71

SMILES	% Inhibition [%]	Z score
CCOC(=O)Cc1csc(CNS(=O)(=O)N(C)C(C)C)n1	7	-1.27
CC(C)(C)c1nc(CN2C[C@H]3CCC(=O)c4cccc2c43)n[nH]1	20	-2.48
O=C(Nc1ccccc1C(=O)NCCc1nnc2ccccn12)c1ccco1	-9	1.66
CCOCc1cc(=O)n2nc(N)nc2[nH]1	-8	1.35
O=C(c1ccncc1Br)N1CCCCCCC1	-10	0.91
CCOc1ccc(OC)cc1NCC1CCN(C(=O)C(C)(C)C)CC1	-12	1.27
Cc1ccn2cc(CNC(=O)CC[C@H]3CCCO3)nc2n1	-14	2.16
COc1ccc(-c2nc3cc(C)ccc3cc2CN2CCC[C@H](C#N)C2)cc1OC	-18	2.36
O=C(NCc1cccnc1)NC1(CO)CCCC1	-2	0.31
CN(C)c1nc(N(C)Cc2ccon2)ncc1F	-7	0.98
COc1ccc(CN2C(=O)N[C@@H](CC(=O)Nc3cccc4[nH]ccc34)C2=O)cc1	8	-1
COc1c(CNC2CCN(C(=O)C(C)C)CC2)c(C)nn1C	-7	1.06
C#CCCC1(CCC(=O)N2CCC[C@H](c3ccccn3)C2)N=N1	-16	1.91
CCCN1CCC[C@H]1c1nc(-c2ccc(F)cc2)no1	-23	2.51
O=C(CC(=O)N1CCn2cccc2[C@H]1c1cccc(Cl)c1)Nc1ccc(F)cc1	-4	0.58
NC(=NC[C@H](O)c1cccc(F)c1)N1CCN(c2nccs2)CC1	2	-0.28
Cc1ccc(-n2cc(-c3ccccc3)nc2NC(=O)CN(C(=O)c2ccc3c(c2)OCO3)C2CC2)cc1C	-19	2.64
CNC(=O)[C@@H]1CC[C@](C)(C(=O)N2Cc3cnc(C)cc3C2)C1(C)C	-7	1.17
CC(c1ccc(S(C)(=O)=O)cc1)N1CCC(N2CCCC2)C1 (stereo not drawn)	-10	0.97
Cc1cn(C)nc1CN1CC[C@H]2[C@@H](C1)NC(=O)N2C	-4	0.41
Cc1nnc([C@@H](NC(=O)CCc2cccnc2)C(C)C)[nH]1	-6	1.23
